# Assay results taken from the supplement of paper PMC11417369.
# The list shows a part of the results.
# Test system: PF3D7_0420300 AP2 domain 1 (GST-tagged)
# Assay: gcPBM binding intensity (ln(normalized median fluorescence intensity)); higher = stronger DNA binding
# Summary of the method: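 In this array assay, P. falciparum DNA-binding domains with a GST tag, expressed in E. coli, were applied for 1 h to primer-extended double-stranded 36-bp intergenic genomic probes and negative controls on an Agilent 4 × 180k array. Bound protein was visualised with Alexa488 anti-GST antibody at 488 nm. Binding intensity is the highest Masliner-normalised natural-log median intensity across replicate spots of either probe orientation.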
row,Sequence,gcPBM binding intensity (ln)
1,TTTTATTGTTTTTTTTTTTTTTCTTTTTTTTTTTTT [CACACA_negctrl_site1094],9.42
2,CGTTATTATACACATACACACAGGAATAAAAAATTA [CACACA_site7373],9.6
3,TTCTGACTTGTTATAATTTGTATATCCGAAAAAATT [TGCATGCA_negctrl_site456],9.16
4,TACATATTTTGTATATATTATTTATTTTATTAGTTT [XGTACX_negctrl_site85],9.23
5,ACTATTATTAAAAATTGTACTTTCTATAAATTTTTT [XGTACX_site7825],9.15
6,TTTTTTTTTTGTTGAGTGCAATTATTTGTAAGAAAA,8.81
7,AAATTAATATATAAAAGTACCCATATATTTAATATA [XGTACX_site3551],9.08
8,TCTCCACCTCTCTTGGTGCGTTATACCCTCGAGGCT,9.12
9,TATAACAAAATATTCACACATATAAGTAAATAAAGG [CACACA_site5777],9.51
10,AGTTTGTTTTTTTTTTTTTTTTCCTGTCACAAACAA [CACACA_negctrl_site1093],9.44
11,GTACGTTACATAAATGTGCACATATTATATGCGAAG,9.23
12,GTCATATATATATGTACACACATATATATATTTATA [CACACA_site1459],9.5
13,TCAAAGCACCCATACACACACATATATATATATATA [CACACA_site4317],9.67
14,AAGACTGCACTTTAAGCACACAAATATATTTTTTTT [CACACA_site8337],9.2
15,AAGAAAAAAATTTAATTAAATGAAATTTTTGAATTA [TGCATGCA_negctrl_site25],8.81
16,ATTATTATATTTATATGTACATAGAAAAAATTAAAT [XGTACX_site2058],9.15
17,AAAAATAAAGGATATACACACTAATTATATATATAT [CACACA_site5550],9.51
18,AAAGTGGCCATATATTTTTTTTTTTTTTTCCTTATT [CACACA_negctrl_site485],9.11
19,TAGTATCCAAGAAAAAGTACTTATTTTAATTTTTTA [XGTACX_site6243],8.99

row,Sequence,gcPBM binding intensity (ln)
1,TCAGATATATATATATAAATATATATTTTGAAATGT [CACACA_negctrl_site686],9.07
2,TCATTTAAGTAGACGCGTACGGAAATTACGAATCCT [XGTACX_site144],9.15
3,TTTCTTCTTCTATTGTGTACGTAAAAAAAAAAAAAA [XGTACX_site772],8.78
4,TTTGAAATATTAAATGCATGTTAAAACATAAAAATG [TGCATGCA_site680],8.94
5,GGTAATTTCCTTTTTTGTACTCATAGAAGGATAATA [XGTACX_site89],9.19
6,TGATAAAATGGGGAAATTCATTATATCATATCTTGG [CACACA_negctrl_site789],9.08
7,TTGGATAAAAAATATGTACACACATATAGATATCTA [CACACA_site8862],9.37
8,ATTATATTAAAATACACACCCAAATATTAAAAAGAT [CACACA_site5613],9.77
9,ACATTTTTTTCATATCGTACATATTATAATATTTTC [XGTACX_site6524],9.49
10,ACAAGTCAGGCAAAAACATGCATTATTTGAACATTA [TGCATGCA_site864],9.15
11,AAAAAAAAAAAAGGAGGTACACAATTTTATATATGC [XGTACX_site5296],9.29
12,GAGCATTACCCATATACACACATATATATAAACCTA [CACACA_site2737],9.63
13,TAAAACAACAAAGAAAATGAAAAAGTAAAAACATAT [CACACA_negctrl_site1049],9.78
14,GTACGATAAAAAATTGGACAAAAAAAAAAAAAAAAT [XGTACX_negctrl_site158],9.26
15,ATTTCATAAATTAAACGTACATAATACACACACATG [XGTACX_site4155],9.93
16,TTTTGCAATAATGTTGCACACTAAATAGTCATCTAT [CACACA_site4304],9.19
17,TTTTGTTATTTTTTAGTGCATATAAAGGTTGTTAAG,9.2
18,ACTGTAAAAGGATTTACACACATATTTACATTTACA [CACACA_site519],9.64
19,TACCAATGCATAACGGTGCAAAAAAATAAGGAATAA,9.36

row,Sequence,gcPBM binding intensity (ln)
1,ATGCATATAACTACGTGTACAAATATACACAAATAC [XGTACX_site8811],9.5
2,ATATATATATTTGTATGTACATATATATATTCGTAT [XGTACX_site1640],9.34
3,ACCCATAAAAAGGATACACACACACCCACCCATATA [CACACA_site8205],10.4
4,TTTCCTTATTAAAACACACAAATACATTATTTAATC [CACACA_site7080],9.21
5,TAATTTATGACACGCGCACACATATATATATAGTAA [CACACA_site4249],9.47
6,AAAAATTATGGACACACACACATATATATATATATT [CACACA_site4717],9.99
7,AATAAAATAAAATACACACATACATACATACAAATG [CACACA_site2438],10.2
8,GGTATACGCAAGTATACACACATATATATATATATA [CACACA_site3240],9.36
9,AAAAACTAATCTTTAACATGCAACCGTTTATACATA [TGCATGCA_site363],9.23
10,TGAGTTACATACTAATGTACACAACAAAAAAAAAAA [XGTACX_site2390],9.12
11,TTTTTTTGAACATATACACACTCTAAACTTATACAT [CACACA_site3917],9.37
12,AAAGGTTTATATGATACACACATAAGTGATCAGGTT [CACACA_site190],9.47
13,TTACTTAAATATAAGTGTCCTCAAAAAAAAAAAAAA [XGTACX_site460],8.78
14,AATATAAGTTTATTAGTGCACAGATAAATATATATT [GTGCAC_site9784],9.31
15,ATGTATGTTTTTTTTTTATTGTTCAAAAAGTTGAAG [CACACA_negctrl_site1276],9.2
16,ATTTTTTATATTAATTGTACATTGTATATATATATA [XGTACX_site8702],9.41
17,TTTTTATAAAAATTATTAAAAAAATTATTTATAGCT [CACACA_negctrl_site265],8.72
18,TTTTTTTTCAATCTCTATATATTAAGGTTTATATTT [XGTACX_negctrl_site397],9.25
19,TAGCGCATAAAAAAAAAAAAATATATACTAATAAAT [GTGCAC_negctrl_site276],9.14
